Experiments:
[1] = biological target: T1, receptor FcγRIIB (on HMC-1 cells) (UniProt P31994 43-310, limits assumed); assay: flow cytometry, 5 µg protein on 1×10^6 HMC-1 cells expressing FcγRIIB, anti-human IgG Fc-FITC detection
T1 construct: whole, on cells; HMC-1 cells (expressing receptor FcγRIIB)
T1 sequence (looked up): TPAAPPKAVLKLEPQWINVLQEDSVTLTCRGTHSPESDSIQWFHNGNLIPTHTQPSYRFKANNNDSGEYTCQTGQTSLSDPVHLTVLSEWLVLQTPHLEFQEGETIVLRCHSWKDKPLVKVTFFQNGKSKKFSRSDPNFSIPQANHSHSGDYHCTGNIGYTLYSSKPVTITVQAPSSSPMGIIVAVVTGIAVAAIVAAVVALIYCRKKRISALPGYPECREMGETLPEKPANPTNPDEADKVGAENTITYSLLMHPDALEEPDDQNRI
Protocol: Assay of binding to receptor FcγRII: 1×10⁶ HMC-1 cells (expressing receptor FcγRIIB) were separately reacted with 5 μg of hIgG, 5 μg of FP4 and 5 μg of MEG protein purified in Example 2 at 4° C. for 1 hour. After washing, 5 μL of anti-human IgG Fc-FITC labeled antibody (CALTAG, CA) was added, and the cells were detected by a flow cytometer.

[2] = biological target: T2, FcgRIIIAV extracellular domain protein tagged with biotin (Sino Biological Inc.) (UniProt P08637 fragment, tagged with biotin (site not stated)); assay: ELISA, second round: MEG coated at 2 µg/mL, biotin-tagged receptor extracellular domain, streptavidin-HRP
T2 construct: extracellular domain; V subtype of FcγRIIIA; also called V subtype of FcγRIIIA
Protocol: (§1) 100 μL of MEG at an appropriate concentration (2 μg/mL) was added to each well of enzyme-linked plates for coating overnight, the supernatant was discarded, blocking was performed with PBS containing 1% BSA for 2 hours, the plates were washed twice with PBST (PBS containing 0.05% Tween 20), extracellular domain proteins such as FcγRI, FcγRIIAH, FcgRIIAR, FcgRIIIAF, FcgRIIIAV or FcγRIIB tagged with biotin (Sino Biological Inc.) at an appropriate concentration were added separately, incubation was performed at room temperature for 1 hour, and then the supernatant was discarded. The plates were washed three times with PBST. Streptavidin-HRP (BD Biosciences) was added, incubation was performed at room temperature for 1 hour, and biotin protein was detected. The supernatant was removed, and the plates were washed four times with PBST. A color development solution was added for color development for 5-40 minutes, and then the absorbance A650 at 650 nm was measured.

[3] = biological target: T3, FcgRIIAR extracellular domain protein tagged with biotin (Sino Biological Inc.) (UniProt P12318 34-217, tagged with biotin (site not stated)); assay: as above
T3 construct: extracellular domain; R subtype of FcγRIIA; also called R subtype of FcγRIIA
T3 sequence (looked up): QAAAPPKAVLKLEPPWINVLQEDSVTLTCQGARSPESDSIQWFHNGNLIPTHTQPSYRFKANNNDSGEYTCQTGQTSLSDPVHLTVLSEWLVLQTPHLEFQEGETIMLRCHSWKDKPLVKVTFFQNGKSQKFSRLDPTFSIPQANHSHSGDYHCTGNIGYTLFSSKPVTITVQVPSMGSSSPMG
Protocol: as §1

[4] = biological target: T4, FcγRI extracellular domain protein tagged with biotin (Sino Biological Inc.) (UniProt P12314 16-292, limits assumed, tagged with biotin (site not stated)); assay: as above
T4 construct: extracellular domain; Bought reagent; also called FcgRI
Protocol: as §1

[5] = biological target: T5, FcgRIIIAF extracellular domain protein tagged with biotin (Sino Biological Inc.) (UniProt P08637 fragment, limits assumed, tagged with biotin (site not stated)); assay: as above
T5 construct: extracellular domain; F subtype of FcγRIIIA; also called F subtype of FcγRIIIA
Protocol: as §1

T4 sequence (P12314 16-292 limits assumed): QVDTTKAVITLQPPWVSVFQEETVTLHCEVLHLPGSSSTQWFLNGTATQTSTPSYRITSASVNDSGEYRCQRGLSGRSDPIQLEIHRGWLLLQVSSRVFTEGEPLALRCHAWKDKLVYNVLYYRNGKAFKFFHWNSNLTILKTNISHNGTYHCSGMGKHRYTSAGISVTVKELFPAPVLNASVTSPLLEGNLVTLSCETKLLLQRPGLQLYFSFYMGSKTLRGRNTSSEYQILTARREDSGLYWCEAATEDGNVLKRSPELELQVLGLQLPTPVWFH

B1: fusion protein MEG (Fc fusion)
chain: FTPPTVKILQSSCDGGGHFPPTIQLLCLVSGYTPGTINITWLEDGQVMDVDLSTASTTQEGELASTQSELTLSQKHWLSDRTYTCQVTYQGHTFEDSTKKCADSNPRGVSAYLSRPSPFDLFIRKSPTITCLVVDLAPSKGTVNLTWSRASGKPVNHSTRKEEKQRNGTLTVTSTLPVGTRDWIEGETYQCRVTHPHLPRALMRSTTKTSGPRAAPEVYAFATPEWPGSRDKRTLACLIQNFMPEDISVQWLHNEVQLPDARHSTTQPRKTKGSGFFVFSRLEVTRAEWEQKDEFICRAVHEAASPSQTVQRAVSVNPGK[letters of human IgG1 Fc with P238D (EU numbers) omitted]
notes: Expressed in CHO cells; Has a P to D mutation in Fc-gamma relative to FP4; also called MEG protein
[1]
  binding result: binds
[2]
  binding result: no binding
[3]
  binding result: no binding
[4]
  binding result: no binding
[5]
  binding result: no binding
